# The supplement of paper PMC8728848
# The other results are listed elsewhere or left out.
# Assays:
# Assay in all cases: glycan array binding signal (z-score within array); higher = stronger binding
# Details in all cases: glycan notation: IUPAC condensed, linker removed
# [1] = target: Gal(b1-3)GlcNAc(b1-3)Gal(b1-4)[Fuc(a1-3)]GlcNAc(b1-6)[Gal(b1-3)GlcNAc(b1-3)]Gal(b1-4)Glc
# Outline: (§1)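 Columns mapping to the same glycan were averaged after glycan names were converted to IUPAC-condensed notation. The data come from 3228 arrays in the Consortium for Functional Glycomics database, limited to those with an available protein sequence. Binding is reported as a within-array Z-score averaged across arrays of one protein sequence and across linkers.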
# [2] = target: Gal(b1-3)GlcNAc(b1-3)GalNAc
# Outline: as §1
# [3] = target: Gal(b1-3)GlcNAc(b1-6)Gal(b1-4)GlcNAc
# Outline: as §1
# [4] = target: Gal(b1-3)[Fuc(a1-4)]GlcNAc
# Outline: as §1
# [5] = target: Gal(b1-3)[Fuc(a1-4)]GlcNAc(b1-2)Man(a1-3)[Gal(b1-3)[Fuc(a1-4)]GlcNAc(b1-2)Man(a1-6)]Man(b1-4)GlcNAc(b1-4)GlcNAc
# Outline: as §1
# [6] = target: Gal(b1-3)[Fuc(a1-4)]GlcNAc(b1-2)Man(a1-3)[Gal(b1-3)[Fuc(a1-4)]GlcNAc(b1-2)Man(a1-6)]Man(b1-4)GlcNAc(b1-4)[Fuc(a1-6)]GlcNAc
# Outline: as §1
# [7] = target: Gal(b1-3)[Fuc(a1-4)]GlcNAc(b1-3)Gal(b1-3)[Fuc(a1-4)]GlcNAc
# Outline: as §1
# [8] = target: Gal(b1-3)[Fuc(a1-4)]GlcNAc(b1-3)Gal(b1-4)GlcNAc
# Outline: as §1
# [9] = target: Gal(b1-3)[Fuc(a1-4)]GlcNAc(b1-3)Gal(b1-4)[Fuc(a1-3)]GlcNAc
# Outline: as §1
# [10] = target: Gal(b1-3)[GlcNAc(b1-6)]GalNAc
# Outline: as §1
# [11] = target: Gal(b1-3)[Neu5Ac(a2-6)]GalNAc
# Outline: as §1
# [12] = target: Gal(b1-3)[Neu5Ac(a2-6)]GlcNAc(b1-6)Gal(b1-4)Glc
# Outline: as §1
# [13] = target: Gal(b1-3)[Neu5Ac(b2-6)]GalNAc
# Outline: as §1
# Gal(b1-4)Gal = target: Gal(b1-4)Gal
# Outline: as §1
# [14] = target: Gal(b1-4)GalNAc(a1-3)[Fuc(a1-2)]Gal(b1-4)GlcNAc
# Outline: as §1
# [15] = target: Gal(b1-4)GalNAc(b1-3)[Fuc(a1-2)]Gal(b1-4)GlcNAc
# Outline: as §1
# Gal(b1-4)Glc = target: Gal(b1-4)Glc
# Outline: as §1
# Gal(b1-4)Glc6S = target: Gal(b1-4)Glc6S
# Outline: as §1
# Gal(b1-4)GlcNAc = target: Gal(b1-4)GlcNAc
# Outline: as §1
# [16] = target: Gal(b1-4)GlcNAc(a1-6)Gal(b1-4)GlcNAc
# Outline: as §1
# [17] = target: Gal(b1-4)GlcNAc(b1-2)Man(a1-3)Man(b1-4)GlcNAc(b1-4)GlcNAc
# Outline: as §1
# [18] = target: Gal(b1-4)GlcNAc(b1-2)Man(a1-3)[Gal(b1-4)GlcNAc(b1-2)Man(a1-6)]Man(b1-4)GlcNAc(b1-4)GlcNAc
# Outline: as §1
# [19] = target: Gal(b1-4)GlcNAc(b1-2)Man(a1-3)[Gal(b1-4)GlcNAc(b1-2)Man(a1-6)]Man(b1-4)GlcNAc(b1-4)[Fuc(a1-6)]GlcNAc
# Outline: as §1
# [20] = target: Gal(b1-4)GlcNAc(b1-2)Man(a1-3)[Gal(b1-4)GlcNAc(b1-2)][GlcNAc(b1-4)]Man(b1-4)GlcNAc(b1-4)GlcNAc
# Outline: as §1
# [21] = target: Gal(b1-4)GlcNAc(b1-2)Man(a1-3)[GlcNAc(b1-2)Man(a1-6)]Man(b1-4)GlcNAc(b1-4)GlcNAc
# Outline: as §1
# [22] = target: Gal(b1-4)GlcNAc(b1-2)Man(a1-3)[Man(a1-6)]Man(b1-4)GlcNAc(b1-4)GlcNAc
# Outline: as §1
# [23] = target: Gal(b1-4)GlcNAc(b1-2)Man(a1-6)Man(b1-4)GlcNAc(b1-4)GlcNAc
# Outline: as §1
# [24] = target: Gal(b1-4)GlcNAc(b1-2)Man(a1-6)[GlcNAc(b1-2)Man(a1-3)]Man(b1-4)GlcNAc(b1-4)GlcNAc
# Outline: as §1
# [25] = target: Gal(b1-4)GlcNAc(b1-2)Man(a1-6)[Man(a1-3)]Man(b1-4)GlcNAc(b1-4)GlcNAc
# Outline: as §1
# [26] = target: Gal(b1-4)GlcNAc(b1-2)[Gal(b1-4)GlcNAc(b1-4)]Man(a1-3)[Gal(b1-4)GlcNAc(b1-2)Man(a1-6)]Man(b1-4)GlcNAc(b1-4)GlcNAc
# Outline: as §1
# [27] = target: Gal(b1-4)GlcNAc(b1-2)[Gal(b1-4)GlcNAc(b1-4)]Man(a1-3)[Gal(b1-4)GlcNAc(b1-2)[Gal(b1-4)GlcNAc(b1-6)]Man(a1-6)]Man(b1-4)GlcNAc(b1-4)GlcNAc
# Outline: as §1
# [28] = target: Gal(b1-4)GlcNAc(b1-2)[Gal(b1-4)GlcNAc(b1-4)]Man(a1-3)[GlcNAc(b1-4)][Gal(b1-4)GlcNAc(b1-2)Man(a1-6)]Man(b1-4)GlcNAc(b1-4)GlcNAc
# Outline: as §1
# [29] = target: Gal(b1-4)GlcNAc(b1-2)[Gal(b1-4)GlcNAc(b1-6)]Man(a1-6)[GlcNAc(b1-4)][Gal(b1-4)GlcNAc(b1-2)Man(a1-3)]Man(b1-4)GlcNAc(b1-4)GlcNAc
# Outline: as §1
# [30] = target: Gal(b1-4)GlcNAc(b1-3)Gal(b1-3)GlcNAc
# Outline: as §1
# [31] = target: Gal(b1-4)GlcNAc(b1-3)Gal(b1-4)Glc
# Outline: as §1
# [32] = target: Gal(b1-4)GlcNAc(b1-3)Gal(b1-4)GlcNAc
# Outline: as §1
# [33] = target: Gal(b1-4)GlcNAc(b1-3)Gal(b1-4)GlcNAc(b1-3)Gal(b1-4)GlcNAc
# Outline: as §1
# [34] = target: Gal(b1-4)GlcNAc(b1-3)Gal(b1-4)[Fuc(a1-3)GlcNAc(b1-6)]Gal(b1-4)Glc
# Outline: as §1
# [35] = target: Gal(b1-4)GlcNAc(b1-3)Gal(b1-4)[Fuc(a1-3)]GlcNAc(b1-3)Gal(b1-4)[Fuc(a1-3)]GlcNAc
# Outline: as §1
# [36] = target: Gal(b1-4)GlcNAc(b1-3)GalNAc
# Outline: as §1
# [37] = target: Gal(b1-4)GlcNAc(b1-3)[Gal(b1-4)GlcNAc(b1-6)]Gal(b1-4)GlcNAc
# Outline: as §1
# [38] = target: Gal(b1-4)GlcNAc(b1-3)[Gal(b1-4)GlcNAc(b1-6)]GalNAc
# Outline: as §1
# [39] = target: Gal(b1-4)GlcNAc(b1-3)[GlcNAc(b1-6)]Gal(b1-4)GlcNAc
# Outline: as §1
# [40] = target: Gal(b1-4)GlcNAc(b1-6)Gal(b1-4)GlcNAc
# Outline: as §1
# [41] = target: Gal(b1-4)GlcNAc(b1-6)GalNAc
# Outline: as §1
binder,measurement,setting,value
Gal 7 (Canis lupus) (protein) MAGSSNVPHKTSLPEGIRVGTVMRIRGVVPNKAGRFYVNLLCGEAPGSEAALHFNPRLDESTVVFNTLEQGAWGREERGTGIPFQRGQPFDVLLIATDEGFKAVVGDSEYHHFRYRIPPARVRLLEVGGDLQLESVSVF,glycan array binding signal (z-score),[1],0.487
same,glycan array binding signal (z-score),[2],-0.194
same,glycan array binding signal (z-score),[3],-0.093
same,glycan array binding signal (z-score),[4],-0.208
same,glycan array binding signal (z-score),[5],-0.166
same,glycan array binding signal (z-score),[6],-0.199
same,glycan array binding signal (z-score),[7],-0.219
same,glycan array binding signal (z-score),[8],-0.147
same,glycan array binding signal (z-score),[9],-0.211
same,glycan array binding signal (z-score),[10],-0.214
same,glycan array binding signal (z-score),[11],-0.206
same,glycan array binding signal (z-score),[12],-0.206
same,glycan array binding signal (z-score),[13],-0.196
same,glycan array binding signal (z-score),Gal(b1-4)Gal,-0.177
same,glycan array binding signal (z-score),[14],0.063
same,glycan array binding signal (z-score),[15],-0.208
same,glycan array binding signal (z-score),Gal(b1-4)Glc,-0.206
same,glycan array binding signal (z-score),Gal(b1-4)Glc6S,-0.202
same,glycan array binding signal (z-score),Gal(b1-4)GlcNAc,-0.21
same,glycan array binding signal (z-score),[16],-0.207
same,glycan array binding signal (z-score),[17],-0.173
same,glycan array binding signal (z-score),[18],-0.103
same,glycan array binding signal (z-score),[19],-0.074
same,glycan array binding signal (z-score),[20],-0.187
same,glycan array binding signal (z-score),[21],-0.198
same,glycan array binding signal (z-score),[22],-0.175
same,glycan array binding signal (z-score),[23],-0.214
same,glycan array binding signal (z-score),[24],-0.189
same,glycan array binding signal (z-score),[25],-0.197
same,glycan array binding signal (z-score),[26],0.093
same,glycan array binding signal (z-score),[27],0.169
same,glycan array binding signal (z-score),[28],-0.131
same,glycan array binding signal (z-score),[29],-0.139
same,glycan array binding signal (z-score),[30],1.81
same,glycan array binding signal (z-score),[31],1.45
same,glycan array binding signal (z-score),[32],2.22
same,glycan array binding signal (z-score),[33],3.2
same,glycan array binding signal (z-score),[34],-0.172
same,glycan array binding signal (z-score),[35],-0.155
same,glycan array binding signal (z-score),[36],-0.213
same,glycan array binding signal (z-score),[37],-0.144
same,glycan array binding signal (z-score),[38],-0.169
same,glycan array binding signal (z-score),[39],-0.147
same,glycan array binding signal (z-score),[40],-0.206
same,glycan array binding signal (z-score),[41],-0.213
